The results in this text go back to article PMC10929226.

Amino acid sequences for entries named in this document (tags omitted). A change or cut given only in a name is not applied to a line headed by its entry. Residues count along the entry.
UniProt Q62419: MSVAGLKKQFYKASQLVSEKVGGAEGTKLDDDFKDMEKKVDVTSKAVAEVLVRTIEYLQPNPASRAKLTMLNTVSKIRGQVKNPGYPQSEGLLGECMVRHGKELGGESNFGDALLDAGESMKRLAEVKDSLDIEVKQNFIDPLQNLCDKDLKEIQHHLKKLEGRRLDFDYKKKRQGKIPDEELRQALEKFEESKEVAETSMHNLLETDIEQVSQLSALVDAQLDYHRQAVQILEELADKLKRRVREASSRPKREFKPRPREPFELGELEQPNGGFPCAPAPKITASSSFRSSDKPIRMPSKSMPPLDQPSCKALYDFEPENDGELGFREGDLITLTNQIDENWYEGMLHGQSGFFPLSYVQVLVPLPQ
EndoA2-His (aa 1-308): residues 1-308 of Q62419
EndoA2-His (aa 1-254): residues 1-254 of Q62419
UniProt Q61768: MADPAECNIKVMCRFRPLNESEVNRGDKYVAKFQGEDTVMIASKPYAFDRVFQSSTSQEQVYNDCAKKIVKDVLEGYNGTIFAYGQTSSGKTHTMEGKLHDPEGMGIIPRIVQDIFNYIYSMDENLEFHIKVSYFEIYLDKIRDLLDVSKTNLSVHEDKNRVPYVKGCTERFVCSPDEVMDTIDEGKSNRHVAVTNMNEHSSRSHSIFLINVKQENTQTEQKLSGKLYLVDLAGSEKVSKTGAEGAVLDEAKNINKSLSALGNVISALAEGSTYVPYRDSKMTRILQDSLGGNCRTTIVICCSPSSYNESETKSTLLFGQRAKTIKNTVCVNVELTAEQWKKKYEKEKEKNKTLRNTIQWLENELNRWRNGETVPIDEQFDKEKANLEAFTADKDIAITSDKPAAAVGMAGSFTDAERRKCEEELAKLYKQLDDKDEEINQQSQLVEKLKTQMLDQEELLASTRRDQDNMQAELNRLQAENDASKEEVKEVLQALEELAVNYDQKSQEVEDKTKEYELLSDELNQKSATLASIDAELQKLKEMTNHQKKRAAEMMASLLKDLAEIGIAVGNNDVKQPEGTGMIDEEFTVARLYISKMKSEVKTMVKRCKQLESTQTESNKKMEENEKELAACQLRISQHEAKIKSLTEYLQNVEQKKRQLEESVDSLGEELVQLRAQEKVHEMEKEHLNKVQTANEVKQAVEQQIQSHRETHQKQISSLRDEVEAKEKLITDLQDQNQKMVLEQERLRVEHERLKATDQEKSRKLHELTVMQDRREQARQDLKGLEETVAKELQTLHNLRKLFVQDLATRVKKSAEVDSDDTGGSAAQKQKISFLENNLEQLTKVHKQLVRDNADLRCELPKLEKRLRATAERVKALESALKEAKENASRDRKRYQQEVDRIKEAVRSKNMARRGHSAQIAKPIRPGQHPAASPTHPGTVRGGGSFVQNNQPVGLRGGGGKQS
UniProt P33175: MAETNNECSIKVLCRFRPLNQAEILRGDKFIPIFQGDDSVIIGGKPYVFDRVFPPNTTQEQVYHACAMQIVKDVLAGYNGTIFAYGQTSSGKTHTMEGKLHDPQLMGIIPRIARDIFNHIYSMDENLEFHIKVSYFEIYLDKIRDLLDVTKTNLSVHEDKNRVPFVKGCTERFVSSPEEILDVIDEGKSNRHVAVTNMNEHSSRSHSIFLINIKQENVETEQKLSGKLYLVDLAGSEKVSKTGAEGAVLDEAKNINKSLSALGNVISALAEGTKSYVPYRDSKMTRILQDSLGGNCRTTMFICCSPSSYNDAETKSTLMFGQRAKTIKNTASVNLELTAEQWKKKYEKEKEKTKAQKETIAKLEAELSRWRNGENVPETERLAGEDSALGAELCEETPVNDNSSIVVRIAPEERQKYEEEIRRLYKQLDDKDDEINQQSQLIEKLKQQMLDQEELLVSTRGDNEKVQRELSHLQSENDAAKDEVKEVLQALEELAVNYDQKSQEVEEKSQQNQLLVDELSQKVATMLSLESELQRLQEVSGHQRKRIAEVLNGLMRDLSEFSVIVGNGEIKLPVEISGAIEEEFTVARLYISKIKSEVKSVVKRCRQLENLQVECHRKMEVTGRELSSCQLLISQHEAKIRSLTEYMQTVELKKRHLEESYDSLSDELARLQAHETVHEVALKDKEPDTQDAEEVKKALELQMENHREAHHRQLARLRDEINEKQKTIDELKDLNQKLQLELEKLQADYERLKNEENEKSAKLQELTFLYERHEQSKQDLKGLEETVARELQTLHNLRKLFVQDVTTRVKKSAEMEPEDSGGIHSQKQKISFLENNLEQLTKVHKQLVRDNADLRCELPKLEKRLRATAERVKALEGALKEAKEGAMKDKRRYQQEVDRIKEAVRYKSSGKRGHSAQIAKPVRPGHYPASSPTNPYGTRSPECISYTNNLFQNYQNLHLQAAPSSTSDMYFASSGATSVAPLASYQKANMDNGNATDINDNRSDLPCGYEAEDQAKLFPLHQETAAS
UniProt Q8CD54: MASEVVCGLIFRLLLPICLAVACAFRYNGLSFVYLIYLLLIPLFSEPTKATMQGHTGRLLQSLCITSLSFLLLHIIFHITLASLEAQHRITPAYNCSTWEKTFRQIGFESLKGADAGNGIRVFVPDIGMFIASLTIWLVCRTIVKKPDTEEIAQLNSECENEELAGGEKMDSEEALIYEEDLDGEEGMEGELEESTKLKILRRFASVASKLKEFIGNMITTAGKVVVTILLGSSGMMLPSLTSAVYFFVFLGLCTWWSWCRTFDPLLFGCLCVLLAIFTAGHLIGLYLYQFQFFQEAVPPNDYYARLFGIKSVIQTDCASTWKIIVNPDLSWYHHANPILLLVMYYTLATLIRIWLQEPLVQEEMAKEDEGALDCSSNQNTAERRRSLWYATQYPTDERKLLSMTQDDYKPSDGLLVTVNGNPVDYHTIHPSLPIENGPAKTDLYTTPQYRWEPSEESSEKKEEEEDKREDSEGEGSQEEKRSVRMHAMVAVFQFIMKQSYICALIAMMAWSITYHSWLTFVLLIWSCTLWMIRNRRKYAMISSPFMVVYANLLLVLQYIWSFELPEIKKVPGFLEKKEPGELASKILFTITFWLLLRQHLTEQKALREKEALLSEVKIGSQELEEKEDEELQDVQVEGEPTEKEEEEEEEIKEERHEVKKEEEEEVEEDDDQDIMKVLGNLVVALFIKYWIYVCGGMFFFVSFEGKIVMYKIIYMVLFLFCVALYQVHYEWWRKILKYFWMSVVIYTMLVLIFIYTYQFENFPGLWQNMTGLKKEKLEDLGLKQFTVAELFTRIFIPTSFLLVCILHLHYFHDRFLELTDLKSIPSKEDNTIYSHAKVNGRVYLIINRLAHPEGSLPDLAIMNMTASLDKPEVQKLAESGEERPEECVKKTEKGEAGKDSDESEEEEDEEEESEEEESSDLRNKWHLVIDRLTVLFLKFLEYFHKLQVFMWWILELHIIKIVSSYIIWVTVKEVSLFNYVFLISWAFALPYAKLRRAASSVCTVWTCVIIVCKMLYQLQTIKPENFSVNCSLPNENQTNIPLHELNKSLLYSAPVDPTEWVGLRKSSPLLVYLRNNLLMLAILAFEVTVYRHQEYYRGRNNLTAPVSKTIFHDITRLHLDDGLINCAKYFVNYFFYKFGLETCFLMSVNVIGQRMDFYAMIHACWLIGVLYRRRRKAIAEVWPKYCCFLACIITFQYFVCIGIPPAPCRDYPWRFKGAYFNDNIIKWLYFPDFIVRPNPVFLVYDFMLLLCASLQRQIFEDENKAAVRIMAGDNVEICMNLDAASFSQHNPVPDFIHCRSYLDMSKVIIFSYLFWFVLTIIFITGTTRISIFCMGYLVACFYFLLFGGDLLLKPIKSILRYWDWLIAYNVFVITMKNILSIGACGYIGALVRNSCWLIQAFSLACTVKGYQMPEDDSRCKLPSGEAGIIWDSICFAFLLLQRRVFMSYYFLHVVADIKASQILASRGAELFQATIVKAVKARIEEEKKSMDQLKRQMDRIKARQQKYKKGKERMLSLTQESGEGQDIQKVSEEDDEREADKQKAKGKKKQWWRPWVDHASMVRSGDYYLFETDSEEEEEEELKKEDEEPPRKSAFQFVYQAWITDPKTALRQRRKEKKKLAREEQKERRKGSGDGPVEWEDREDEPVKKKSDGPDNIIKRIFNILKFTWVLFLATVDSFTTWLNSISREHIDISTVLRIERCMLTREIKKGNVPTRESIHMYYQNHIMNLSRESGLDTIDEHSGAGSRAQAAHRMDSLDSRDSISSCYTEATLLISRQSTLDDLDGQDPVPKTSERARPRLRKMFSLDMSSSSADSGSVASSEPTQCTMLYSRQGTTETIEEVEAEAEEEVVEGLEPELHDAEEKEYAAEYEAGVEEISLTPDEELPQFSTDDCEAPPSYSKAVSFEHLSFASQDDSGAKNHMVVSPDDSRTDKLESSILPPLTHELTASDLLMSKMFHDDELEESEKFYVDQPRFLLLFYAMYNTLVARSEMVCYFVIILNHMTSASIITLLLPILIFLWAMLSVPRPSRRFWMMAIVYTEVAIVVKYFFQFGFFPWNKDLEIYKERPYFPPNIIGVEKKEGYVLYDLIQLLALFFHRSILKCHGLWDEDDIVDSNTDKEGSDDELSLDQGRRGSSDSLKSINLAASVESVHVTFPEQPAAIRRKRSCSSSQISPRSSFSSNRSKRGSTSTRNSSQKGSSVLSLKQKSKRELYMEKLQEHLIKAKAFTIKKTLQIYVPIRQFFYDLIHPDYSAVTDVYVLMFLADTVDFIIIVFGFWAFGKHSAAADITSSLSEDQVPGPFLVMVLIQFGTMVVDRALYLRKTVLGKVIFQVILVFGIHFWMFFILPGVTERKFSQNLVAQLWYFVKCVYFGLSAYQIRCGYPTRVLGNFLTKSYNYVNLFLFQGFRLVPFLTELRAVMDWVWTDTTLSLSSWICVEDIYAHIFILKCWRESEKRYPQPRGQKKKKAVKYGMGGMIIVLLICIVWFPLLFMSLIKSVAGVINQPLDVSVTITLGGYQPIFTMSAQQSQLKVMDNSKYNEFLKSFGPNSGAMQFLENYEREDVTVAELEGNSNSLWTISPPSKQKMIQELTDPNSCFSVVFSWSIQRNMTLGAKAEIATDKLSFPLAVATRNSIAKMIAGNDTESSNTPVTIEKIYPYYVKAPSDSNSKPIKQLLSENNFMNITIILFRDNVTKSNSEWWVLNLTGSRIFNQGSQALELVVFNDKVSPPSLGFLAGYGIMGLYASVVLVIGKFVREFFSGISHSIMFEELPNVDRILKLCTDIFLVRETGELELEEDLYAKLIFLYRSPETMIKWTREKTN
UniProt P28741: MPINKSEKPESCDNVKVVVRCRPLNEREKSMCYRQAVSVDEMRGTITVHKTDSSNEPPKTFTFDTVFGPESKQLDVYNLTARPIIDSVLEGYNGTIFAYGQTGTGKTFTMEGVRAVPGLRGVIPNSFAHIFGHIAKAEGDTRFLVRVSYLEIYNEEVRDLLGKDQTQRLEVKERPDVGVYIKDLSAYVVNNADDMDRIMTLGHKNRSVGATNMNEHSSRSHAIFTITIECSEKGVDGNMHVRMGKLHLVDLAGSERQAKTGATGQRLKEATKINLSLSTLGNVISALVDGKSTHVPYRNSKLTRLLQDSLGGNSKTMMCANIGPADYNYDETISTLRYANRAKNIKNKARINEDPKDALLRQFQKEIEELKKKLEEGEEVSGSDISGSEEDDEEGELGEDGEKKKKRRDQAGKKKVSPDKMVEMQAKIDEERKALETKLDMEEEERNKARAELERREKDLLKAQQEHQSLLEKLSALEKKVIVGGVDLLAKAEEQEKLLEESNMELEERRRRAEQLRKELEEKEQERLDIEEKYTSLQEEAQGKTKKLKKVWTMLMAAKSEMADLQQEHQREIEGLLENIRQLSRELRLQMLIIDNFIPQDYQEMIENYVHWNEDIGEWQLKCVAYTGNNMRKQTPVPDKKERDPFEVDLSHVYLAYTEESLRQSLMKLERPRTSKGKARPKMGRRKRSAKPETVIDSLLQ

No constants are given. Whether binding was seen depends on the method and setting. Binding seen in cells or lysates may run through a third protein. Some results given as binding are weak or reduced against the parent protein; the word gives no strength.

Test [1] deals with EndoA2-His (aa 1-308) (UniProt Q62419). Description: co-IP; EndoA2-His constructs transiently coexpressed with Piezo2 or myc-KIF5B in HEK293 cells; lysates in cold Co-IP RIPA buffer immunoprecipitated with antibodies as indicated in the figure, protein A/G beads, immunoblot. A general note: Immunoblotting shows a protein as a band on a membrane.
For test [2], the target named is Full-length EndoA2-His (UniProt Q62419). The test is described as above.
Test [3] deals with EndoA2-His (aa 1-254) (UniProt Q62419). The description is as above.
The target of test [4] is Endophilin A2 (mouse (endogenous in DRG)) (UniProt Q62419). Description: co-IP; mouse DRG lysates in cold Co-IP RIPA buffer, immunoprecipitated with EndoA2 antibody (overnight, 4 °C) and protein A/G beads, immunoblotted for the partners.
The target is the same in test [5]. Description: proximity ligation; Duolink PLA on cultured mouse L4-L6 DRG neurons (for KIF5B/Piezo2: of EndoA2^fl/fl mice), fixed with 4% PFA, permeabilised, two primary antibodies.
The target is the same in test [6]. Kind of test: co-IP; mouse DRG lysates in cold Co-IP RIPA buffer, immunoprecipitated with EndoA2 antibody (overnight, 4 °C) and protein A/G beads, immunoblotted for the partners. The source holds these as a separate data set.

Take myc-KIF5B (from UniProt Q61768 1-963): the binding result in test [1], in test [2] and in test [3] was “binds” throughout.

Regarding “kinesin family member 5B (from UniProt Q61768 1-963)”, the binding entry in test [4] and in test [5] was “binds” in each case.

Turning to KIF5A (from UniProt P33175 1-1027), in test [4], the binding result is “binds weakly”.

For the molecule Piezo2 (from UniProt Q8CD54 1-2822), the binding entry in test [4] and in test [5] was “binds” each time.

As for KIF3A (from UniProt P28741 1-701), the binding entry in test [4] is listed as “binds weakly”.

Take “Piezo2 (plasmid, cloned from mouse DRG) (from UniProt Q8CD54 1-2822)”: the binding entry in test [1] was “no binding”; in test [2], “binds”; in test [3] it was “no binding”.

B1: Acid sensing ion channel 3 (protein, UniProt Q6X1Y6 1-530)
chain: MKPPSGLEEAQRRQASDIRVFANSCTMHGLGHIFGPGGLTLRRGLWATAVLLSLAAFLYQVAERVRYYGEFHHKTTLDERESHQLTFPAVTLCNINPLRRSRLTPNDLHWAGTALLGLDPAEHAAYLRALGQPPAPPGFMPSPTFDMAQLYARAGHSLEDMLLDCRYRGQPCGPENFTVIFTRMGQCYTFNSGAQGAELLTTPKGGAGNGLEIMLDVQQEEYLPIWKDMEETPFEVGIRVQIHGQEEPPAIDQLGFGAAPGHQTFVSCQQQQLSFLPPPWGDCNTASVDPDFDPEPSDPLGSPSSSPPYSLIGCRLACESRYVARKCGCRMMHMPGNSPVCSPQQYKDCASPALDAMLRKDTCVCPNPCATTRYAKELSMVRIPSRASARYLARKYNRSETYITENVLVLDIFFEALNYEAVEQKAAYEVSELLGDIGGQMGLFIGASLLTILEILDYLCEVFQDRVLGYFWNRRSSQRRSGNTLLQEELNGHRTHVPHLSLGPRPPTAPSAVTKTLAASHRTCYLVTRL
Take B1: the binding result in test [6] is reported as “binds weakly”.

B2: KIF3B (protein, UniProt Q61771 1-747)
chain: MSKLKSSESVRVVVRCRPMNGKEKAASYDKVVDVDVKLGQVSVKNPKGTSHEMPKTFTFDAVYDWNAKQFELYDETFRPLVDSVLQGFNGTIFAYGQTGTGKTYTMEGVRGDPEKRGVIPNSFDHIFTHISRSQNQQYLVRASYLEIYQEEIRDLLSKDQTKRLELKERPDTGVYVKDLSSFVTKSVKEIEHVMNVGNQNRSVGATNMNEHSSRSHAIFVITIECSEVGLDGENHIRVGKLNLVDLAGSERQAKTGAQGERLKEATKINLSLSALGNVISALVDGKSTHIPYRDSKLTRLLQDSLGGNAKTVMVANVGPASYNVEETLTTLRYANRAKNIKNKPRVNEDPKDALLREFQEEIARLKAQLEKRSIGRRKRREKRREGGGSGGGGEEEEEEGEEGEEDGDDKDDYWREQQEKLEIEKRAIVEDHSLVAEEKMRLLKEKEKKMEDLRREKDAAEMLGAKIKAMESKLLVGGKNIVDHTNEQQKILEQKRQEIAEQKRREREIQQQMESRDEETLELKETYTSLQQEVDIKTKKLKKLFSKLQAVKAEIHDLQEEHIKERQELEQTQNELTRELKLKHLIIENFIPLEEKNKIMNRSFFDDEEDHWKLHPITRLENQQMMKRPVSAVGYKRPLSQHARMSMMIRPEPRYRAENIMLLELDMPSRTTRDYEGPAISPKVQAALDAALQDEDEIQVDASSFESTASRKPKARPKSGRKSGSSSSSSGNPASQFYPQSRGLVPK
As for B2, in test [6], the binding result is reported as “binds weakly”.

B3: TACAN/Tmem120a (protein, UniProt Q8C1E7 1-343)
chain: MQSPPPDPLGDCLRNWEDLQQDFQGIQETHRLYRLKLEELTKLQANCTNSITRQKKRLQELALVLKKCRPSLPSESMEAAQELENQMKERQGLFFDMEAYLPKKNGLYLSLVLGNVNVTLLSKQAKFAYKDEYEKFKLYLTIILIVISFTCRFLLNSRVTDAAFNFLLVWYYCTLTIRESILINNGSRIKGWWVFHHYVSTFLSGVMLTWPDGLMYQKFRNQFLSFSMYQSFVQFLQYYYQSGCLYRLRALGERHTMDLTVEGFQSWMWRGLTFLLPFLFFGHFWQLFNALTLFNLARDPECKEWQVLMCGFPFLLLFLGNFFTTLRVVHQKFHSQQHGNKKD
Turning to B3, the binding result in test [6] was “binds weakly”.
